Source: the supplement of paper PMC3724861
The other results are listed elsewhere or left out.

What follows are sequences tested on T1, Caupolican (Caup) homeodomain DNA-binding domain (assay: PBM E-score (8-mer, recovered from the published 9-mer minima) (E-score (dimensionless, -0.5 to 0.5)); Drosophila protein; higher = stronger relative binding preference, active = 0.31 or more).
T1 sequence: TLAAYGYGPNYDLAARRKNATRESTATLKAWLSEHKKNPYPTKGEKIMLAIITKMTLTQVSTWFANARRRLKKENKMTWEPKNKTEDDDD
How it was run: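 An enrichment score, with higher meaning stronger, expresses relative binding preference for each short DNA word. The protein used was Caup's homeodomain DNA-binding domain (residues 214-303), produced by in vitro transcription and translation and tested at 100 nM on custom-designed protein binding microarrays. The 8-mer values were recovered from published 9-mer scores, each equal to the lower of its two constituent 8-mer scores.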

PBM E-score, inactive:
AGGTATTC 0.0546, ACACCAGG 0.0474, CTCGCTCC -0.194, AAATCAAC 0.0931, ACGTCACC -0.0492, CGATAATC -0.0505, ATGTCCAC 0.222, GACCGTAC 0.04, CACTGAAA 0.0226, CAAGTCCC -0.072, GTGGGACA 0.116, CTAGGCCC -0.184, CATAGCCA -0.0493, AGTCGCTA 0.0418, ATATTATC 0.176, ACCTTCAC 0.0228, GCAAGGGA -0.118, AGCGGGTG -0.171, GGACACGA 0.23, GGGTTTGA -0.032, ATTTCGGA 0.0085, AGGGCTGC -0.264, GAAACCCC -0.174, CATCAGAA 0.146, ACCGGACT -0.166, CAGCGATG -0.072, GAGCCAAC -0.122, GAGTTGAC 0.0345, AGCAAGAA 0.027, AGTTCCCG -0.15, CGCTTCCG -0.177, AACTAGGC -0.0263, GTCTGCAC -0.0441, TAGCTGAA 0.0122, ATGGCCTG -0.0675, AAAGAGCC -0.195, CTTTGCTC -0.0311, AGCTTAAG -0.0765, ATGAGATG 0.069, ACATCACG 0.217, ACCGCCCC -0.199, TACACTAA 0.198, GCTATATA 0.151, CGATCAAC 0.047, CCCCGCTC -0.249, ACGGTCCA -0.112, CGGTATTA 0.034, GAACGTCA -0.0664, GGAAGAGA -0.0897, CCGCCAGC -0.217, AGGATGAC -0.011, ATGGTCGA 0.00221, ACAGATGG 0.0732, GGAGACTA -0.0327, CAGAAGGC -0.142, CGAAATGA 0.046, CCGGGAGG -0.219, AGACAGAA 0.0455, CTGTTGGA 0.0269, GATATGGC -0.0691, ATTTCATG 0.114, AGCGGGAT -0.131, ATATCGCA 0.0425, AAGGACCA -0.113, ACTCTGGC -0.189, AATATTAC 0.288, ATAAAATG 0.179, CGTGGTCA 0.0012, GAACCGAC -0.072, CGGATAAC 0.044, CAGTATCC 0.0462, CTCCCTAC -0.049, GGGCGCAC -0.277, ACTTCGAA -0.0186, ATTGACGC 0.00131, AGAGTCAT 0.031, AGCGTCAA -0.0071, GCGCGTTA -0.0378, ATCATCGG -0.0315, ATAACAAT 0.254, TAAGGGGA -0.0541, ACCCCCAC -0.29, ATAAAGAC 0.0582, ATTAAAAG 0.0735, ACTTATAG -0.0185, GTCGCGTA 0.0689, AAACGCGA 0.0379, ATCGCCAT -0.0401, ATCCGCTC -0.121, CGAAGTAC 0.155, AGTGATAT 0.0873, CATCGGCA -0.0473, CATCTTGG 0.0046, TGAGAACA 0.246, GAAGGGGC -0.165, CGAGAATA 0.0481, ACACACAC 0.242, GGATTACA 0.276, GCAGTACA 0.196, AGGGCGGG -0.169, AGACCAAT 0.0512, AGCGTACT 0.0252, AAGGCCAG -0.185, CTACCAAG 0.0145, CAACGAAG 0.0213, CCCCAAAG -0.329, GGAAATCA 0.0249, GTCGAGAA 0.0141, AGGTGCAA -0.076, GTGAAGAA -0.0329, ATATCTCC -0.0278, ATGGACAG 0.114, AAATCGCT -0.0232, CAGTAGCC -0.173, CCAATTTC 0.0186, CGATACAG 0.0506, AGAGTATG -0.0417, CCGGGAAG -0.197, AAGATCGC 0.0108, CCGTCCGA -0.219, ACACGTCC 0.212, GGTACTTA 0.0548, ATAGAGTC 0.0201, ACCTTTGC -0.0471, CCAGTGGG -0.228, GAACGAAA -0.0649, CCGTAGCA -0.0871, CATTGACG -0.00626, AGGTTAAC 0.0851, CCATCGTA 0.0855, ATTCGGGA -0.0483, CCCGGGAA -0.23, AATTCTTA 0.0898, ACCGCAAA -0.00912, ATTATCTG 0.12

PBM E-score, ≥ 0.0125:
AAGCGAGT

PBM E-score, ≥ 0.139:
ATTGAGTA

PBM E-score, ≥ 0.223:
TACTTGAA

PBM E-score, ≥ 0.0649:
CAGTCCTA

PBM E-score, active:
GATTACAC 0.318, GTGTGTCA ≥ 0.312, ATATGTTG 0.324
